Measurements published in PMC4336329 (PLoS ONE, 2015).
Screen size: about 310,000 compounds; about 14,000 (4.5%) showed an effect of 50% or more. Effects have a minus sign here. The list shows a part of the results.

biological target: human ether-à-go-go-related gene (hERG) potassium channel (human, UniProt Q12809); experiment: primary screen, population patch clamp on CHO cells stably expressing hERG
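Further: peak tail current of the secondary pulse compared with the same well before compound.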

Chain of human ether-à-go-go-related gene (hERG) potassium channel (Q12809 whole entry, looked up): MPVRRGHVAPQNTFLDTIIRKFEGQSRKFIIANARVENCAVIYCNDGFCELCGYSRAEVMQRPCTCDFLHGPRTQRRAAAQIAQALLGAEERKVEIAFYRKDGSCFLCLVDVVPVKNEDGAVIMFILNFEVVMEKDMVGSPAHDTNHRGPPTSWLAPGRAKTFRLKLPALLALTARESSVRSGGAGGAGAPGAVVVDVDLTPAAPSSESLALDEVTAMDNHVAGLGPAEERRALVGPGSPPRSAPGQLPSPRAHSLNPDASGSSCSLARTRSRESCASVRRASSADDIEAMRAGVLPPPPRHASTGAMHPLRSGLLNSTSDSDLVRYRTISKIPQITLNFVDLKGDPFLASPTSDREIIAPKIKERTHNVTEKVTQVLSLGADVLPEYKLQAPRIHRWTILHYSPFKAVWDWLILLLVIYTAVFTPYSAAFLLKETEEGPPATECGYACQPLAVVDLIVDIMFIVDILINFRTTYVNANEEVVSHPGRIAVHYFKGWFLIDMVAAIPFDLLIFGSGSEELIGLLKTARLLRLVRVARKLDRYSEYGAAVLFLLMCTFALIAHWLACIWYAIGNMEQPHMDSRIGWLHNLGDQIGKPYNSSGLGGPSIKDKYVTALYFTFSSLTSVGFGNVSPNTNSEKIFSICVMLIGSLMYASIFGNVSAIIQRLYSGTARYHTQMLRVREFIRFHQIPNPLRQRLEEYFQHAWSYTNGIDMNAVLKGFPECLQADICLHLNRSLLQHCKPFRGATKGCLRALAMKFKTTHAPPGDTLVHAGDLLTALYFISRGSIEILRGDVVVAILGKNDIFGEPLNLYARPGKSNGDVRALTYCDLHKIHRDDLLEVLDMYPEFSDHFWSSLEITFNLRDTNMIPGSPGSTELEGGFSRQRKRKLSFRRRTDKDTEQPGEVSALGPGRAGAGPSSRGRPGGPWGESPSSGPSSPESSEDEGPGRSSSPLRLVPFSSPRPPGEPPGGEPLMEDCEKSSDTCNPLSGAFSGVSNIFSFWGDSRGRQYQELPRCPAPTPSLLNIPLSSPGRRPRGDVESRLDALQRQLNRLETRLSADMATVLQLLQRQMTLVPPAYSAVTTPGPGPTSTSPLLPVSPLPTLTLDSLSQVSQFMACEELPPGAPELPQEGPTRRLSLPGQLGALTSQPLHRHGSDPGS

SMILES	hERG current change (%, negative = inhibition) at 10uM [%]
CCOC(=O)Cc1csc(NC(=O)c2c(-c3c(Cl)cccc3Cl)noc2C)n1	-4.82
CCc1ccc(N=C2NC(=O)CS2)cc1	3.68
Cn1c(N)c(C(=O)CSc2ccc3c(c2)OCCO3)c(=O)n(C)c1=O	12.2
O=C1NC(=Nc2ccccc2)SC1Cc1ccccc1 (centres unmarked)	5.97
COc1cc(C(=O)ON=C2C(C)=CC(=O)C=C2C)cc(OC)c1OC	-11.9
Cc1nn(Cc2ccc(F)cc2)c(C)c1NC(=O)c1noc2c1CCCCC2	2.3
Cc1ccc2nc3n(c(=O)c2c1)-c1ccccc1C(=O)NC3Cc1ccccc1 (centres unmarked)	5.22
COP(=O)(OC)C1(O)C(=O)Nc2ccc(Br)cc21 (centres unmarked)	10.2
COc1ccccc1NC(=O)C1CC(C(C)C)OC1=O (centres unmarked)	7.27
COC(=O)C(CCSC)NC(=O)c1cc2c(n(-c3ccccc3)c1=O)CCCC2=O (centres unmarked)	-1.42
Cc1ccc(NC(=O)c2ccc(S(=O)(=O)NCC3CCCO3)cc2)cc1 (centres unmarked)	-1.42
O=C(COc1ncnc2cc([N+](=O)[O-])ccc12)NC(=O)NC1CCCCC1	-56.5
Cc1ccc(N/C(N)=N/c2nc(C)cc(C)n2)cc1	-68.7
O=C(/C=C\Nc1ccc2c(c1)OCO2)c1ccc2c(c1)OCO2	27.3
CCC(C)NC(=O)CNS(=O)(=O)c1ccc(C)cc1 (centres unmarked)	5.31
Nc1[nH]c(=O)nc(Nc2ccccc2)c1N=O	-4.44
CCCCN1C(=O)C(O)=C(C(C)=O)C1c1ccc(OC)cc1OC (centres unmarked)	-11.1
COc1ccc(CNC(=O)c2cc3c(=O)n4cccc(C)c4nc3n(CC3CCCO3)c2=N)cc1 (centres unmarked)	-77.2
CCNS(=O)(=O)c1cc(Br)ccc1OC	-8.54
COc1ccc(NC(=O)C2CC(=O)OC2c2ccccc2)cc1 (centres unmarked)	6.71

SMILES	hERG current change (%, negative = inhibition) at 10uM [%]
CCOc1cc(/C=N/NC(=O)C(=O)N/N=C/c2ccc(O)c(OCC)c2)ccc1O	23.2
Cc1[nH]c2ccccc2c1/C=C/c1nc2ccccc2c(=O)[nH]1	6.46
Cc1nn(C)c(=O)n1N(C)c1ncc(C(F)(F)F)cc1Cl	23.8
O=C1NC(=O)C(CCc2ccncc2)(Cc2ccc(OCc3ccccc3)cc2)C(=O)N1	11.8
NC(=O)c1cc(-c2cccnc2)nc2ccc(Br)cc12	10.2
C=CCOC(=O)/C(=C\c1ccc(OC)cc1)NC(=O)c1ccco1	-7.71
O=C(NCc1cccnc1)C(=O)Nc1nc(C23CC4CC(CC(C4)C2)C3)cs1	12.1
CC(=O)NCc1nc2ccccc2n1Cc1ccccc1C	-0.286
CCCOc1cccc(C(=O)NCCCNC(=O)c2cccnc2)c1	-20.2
COCCn1c(SCc2ccc(OC)c(F)c2)nc2ccccc2c1=O	-2.82
COc1ccc(NC(=O)CNS(=O)(=O)c2ccc(Cl)cc2)cc1OC	-7.17
C=CCc1cccc(CNc2cnc3ccccc3c2)c1O	-4.21
COc1cccc(CSc2nc(N)cc(N)n2)c1	14
CC1CCCCC1NC(=O)CC1Oc2ccccc2NC1=O (centres unmarked)	0.244
CC(C)C(=O)N1CCC(n2nccc2NC(=O)CCOc2ccccc2)CC1	0.0951
CCCNS(=O)(=O)c1cccc(C(=O)OCc2cc(=O)oc3cc(OC)ccc23)c1	-11.2
CCNC(=S)NNC(=O)c1ccncc1	3.18
CCc1noc(C)c1C(=O)Nc1nc2ccc(F)cc2s1	-7.36
O=C(CSc1nnc(COc2cccc3ccccc23)o1)N1CCN(C(=O)c2ccco2)CC1	-65.1
Cc1c(C(C)NC(=O)c2cc(COc3cccc4cnccc34)on2)cnn1C (centres unmarked)	-55.6

SMILES	hERG current change (%, negative = inhibition) at 10uM [%]
CC(=O)Nc1c2c(nn1-c1ccc(C)cc1)CSC2	10.9
COC(=O)/C(=C\C(=O)c1ccccc1)Nc1cccc(C(F)(F)F)c1	-2.94
CC(NC(=O)c1ccccc1Br)c1ccc2c(c1)CCCC2 (centres unmarked)	-24.1
O=c1ccc2ccccc2o1	16.1
COc1ccc(C2CC(c3cccs3)=NN2C(=O)CSc2nc3ccccc3s2)cc1 (centres unmarked)	-6.91
Cc1ccc(NC(=O)N2CCCC2C(=O)Nc2ccc(-n3cnnn3)c(C)c2)cc1 (centres unmarked)	-18.7
COc1ccc(N2CCN(C(=O)CNC(=O)c3ccc4ccccc4c3)CC2)cc1	4.98
Cn1c(SCc2cccc(Br)c2)nc2c1c(=O)[nH]c(=O)n2C	15.5
CN(C)CCNC(=S)Nc1ccccc1C(C)(C)C	31.4
CCOCCCNC(=O)C(=O)NCCCOCC	0.952
CC(C)Nc1nc(NC(C)C)nc(Oc2ccc(/C=N/O)cc2)n1	-6.53
Cc1cc(C)c(C#N)c(SCC(=O)N(C)C2CCCCC2)n1	-19.2
O=C(NCC1CCCN(Cc2ccc3nonc3c2)C1)c1ccc(F)cc1 (centres unmarked)	-60.8
CC(C)c1ccc(OCC(=O)NC(=S)Nc2ccc3c4c(cccc24)CC3)cc1	-3.9
Cc1oc2cc(OC(C)C(=O)O)ccc2c(=O)c1Oc1ccccc1 (centres unmarked)	15.5
Cc1cccc[n+]1CC(=O)N1c2ccccc2Sc2ccccc21.[Cl-]	18.7
CCC(NC(=O)c1ccc2nc(Cc3ccc(OC)cc3)oc2c1)c1ccncc1 (centres unmarked)	-9.99
COc1ccc(C(=O)C2CCN(CC(=O)Nc3cc(C)cc(C)c3)CC2)cc1	-65.2
CCOC(=O)c1c(N2C(=O)CC(Sc3ccccc3C(=O)O)C2=O)sc2c1CCCC2 (centres unmarked)	27.9
